According to PubChem BioAssay AID1468 (National Center for Advancing Translational Sciences (NCATS), 2008):
“And” between values parts separate entries of the source, which are not always exact repeats. Identical values can stand only once. Out of some 280,000 compounds screened, about 1,100 (0.39%) were called active. Inconclusive results, whose numbers are uncertain, are shown with a selection of clear calls. Calls follow the shape of the dose curve; as a rule, active = well fitted inhibition curve with a large enough effect; inconclusive = small, poorly fitted or top-dose-only effect, or effect the other way; inactive = flat fitted curve, though single readings scatter. A potency beside an inconclusive call is a rough fit, not a confirmed value.

What follows are compounds tested against Microtubule-associated protein tau (Homo sapiens) (UniProt P10636) (assay: qHTS for Inhibitors of Tau Fibril Formation, Fluorescence Polarization). Conditions: K18 P301L tau heparin fibrillization, Alexa594 FP, 6 h; series mostly up to 57.7 µM; activity, negative = inhibition: at the top concentration.
Outline: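 Read-out: fluorescence polarization of Alexa 594-labeled tau (0.24 uM), 555 nm excitation, 632 nm emission. Mixtures held 15 uM unlabeled K18 P301L, compound and 20 uM heparin, pH 7 acetate buffer, incubated 6 hr at 37 C.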
% is scaled to controls: 0 for no effect and ±100 for the full control effect; potency is read from the fitted curve at half-maximal effect; tags tell the direction and shape of the fitted curve.
Also: nearly all actives have a fitted effect of over 55% in size.

Chain of UniProt P10636 (P10636 whole entry, looked up): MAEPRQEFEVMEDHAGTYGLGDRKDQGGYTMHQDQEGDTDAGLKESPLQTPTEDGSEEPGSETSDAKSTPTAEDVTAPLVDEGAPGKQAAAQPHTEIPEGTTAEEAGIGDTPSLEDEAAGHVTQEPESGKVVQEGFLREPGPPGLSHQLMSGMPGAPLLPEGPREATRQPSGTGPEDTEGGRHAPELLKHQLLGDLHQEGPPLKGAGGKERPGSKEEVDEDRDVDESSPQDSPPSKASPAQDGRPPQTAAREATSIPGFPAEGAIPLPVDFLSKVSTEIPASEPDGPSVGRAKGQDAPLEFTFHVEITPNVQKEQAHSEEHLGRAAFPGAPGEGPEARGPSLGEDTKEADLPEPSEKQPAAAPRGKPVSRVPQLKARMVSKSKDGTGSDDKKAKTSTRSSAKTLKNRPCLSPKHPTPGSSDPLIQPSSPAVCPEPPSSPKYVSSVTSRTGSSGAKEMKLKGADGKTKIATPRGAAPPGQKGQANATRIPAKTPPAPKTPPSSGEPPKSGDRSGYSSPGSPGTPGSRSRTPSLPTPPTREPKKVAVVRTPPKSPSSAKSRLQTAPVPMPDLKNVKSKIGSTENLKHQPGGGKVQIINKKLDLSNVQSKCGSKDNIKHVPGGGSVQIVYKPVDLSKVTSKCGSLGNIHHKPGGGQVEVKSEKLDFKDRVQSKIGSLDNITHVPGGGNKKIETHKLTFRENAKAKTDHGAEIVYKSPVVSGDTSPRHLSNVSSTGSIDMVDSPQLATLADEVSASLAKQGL

SMILES | activity, negative = inhibition | Potency
CN(C)C(=O)Oc1c(Cl)cc(Cl)c2cccnc12 | inactive: -3.57% | –
COc1cc2c(cc1O)C[C@H]1c3c(cc(OC)c(O)c3-2)CCN1C | – | inconclusive: 25.1 µM [inhibitor, partial curve]
Cc1cccc(N2C(=O)NC(=O)/C(=C\C=C\c3ccco3)C2=O)c1 | – | inconclusive: 11.2 µM [inhibitor, partial curve]
CC(C)CCNC(=O)c1c(N)n(Cc2ccc3c(c2)OCO3)c2nc3ccccc3nc12 | – | inconclusive: 8.91 µM [inhibitor, partial curve, poor fit]
O=C(O)c1nn(Cc2ccc(Cl)c(Cl)c2)c2ccccc12 | inactive: -1.34% | –
O=C(O)c1ccc[nH]c1=S | – | inconclusive: 35.5 µM [inhibitor, single point]
c1ccc(CCNCc2ccccc2)cc1 | – | inconclusive: 8.91 µM [inhibitor, single point]
O=c1c2ccccc2[se]n1-c1ccccc1 | – | inconclusive: 2 µM [inhibitor, partial curve] and inconclusive: 6.31 µM [inhibitor, partial curve, poor fit] and inconclusive: 3.98 µM [inhibitor, partial curve]
CCCc1cc2c(n1Cc1ccco1)C(C)C1CN(C(=O)c3ccccc3)C(C)(C(=O)OC)C21 (stereo not given) | – | inconclusive: 35.5 µM [inhibitor, single point]
C=C1C(O)(c2ccccc2)C2CC[N+]1(C)CC2 (stereo not given) | inactive: 6.28% | –
S=c1[nH]c2ccccc2[nH]1 | – | inconclusive: 8.91 µM [inhibitor, single point]
Cc1ccc2c(c1)CC1(CN2C)C(=O)NC(=O)N(CCc2ccccc2)C1=O (stereo not given) | – | inconclusive: 39.8 µM [inhibitor, single point]
CN(C(=O)Oc1ccc(C(C)(C)C)cc1)c1ccccc1 | inactive: 0.321% | –
CS/C(N)=C(C#N)/C(C#N)=C(\N)SC | – | inconclusive: 20 µM [inhibitor, partial curve]
Cc1ccc(N2C(=O)NC(=O)/C(=C\c3ccc([N+](=O)[O-])o3)C2=O)cc1 | – | inconclusive: 39.8 µM [inhibitor, partial curve]
O=c1[nH]c(O)c(C=NC2CCN(Cc3ccccc3)CC2)c(=O)[nH]1 | – | inconclusive: 1 µM [inhibitor, full curve, poor fit]
COc1ccc(C(=O)CC2C(=O)N(C)C(=O)N(C)C2=O)cc1 | – | inconclusive: 17.8 µM [inhibitor, single point]
CN(C(=O)Cc1ccc(Cl)c(Cl)c1)C(CN1CCCC1)c1cccc(N=C=S)c1 (stereo not given) | – | inconclusive: 22.4 µM [inhibitor, partial curve]
O=c1cccc2n1CC1CNC[C@H]2C1 | – | inconclusive: 44.7 µM [inhibitor, single point]
O=C(/C=C/c1c[nH]c2ccccc12)c1c(O)n(CCc2ccccc2)c(=O)[nH]c1=O | – | inconclusive: 17.8 µM [inhibitor, partial curve]
NC[C@H](CC(=O)O)c1ccc(Cl)cc1 | inactive: 3.94% | –
Cc1nn(C)c(C)c1-c1cccc2c1CCC(N(C)C)C2 (stereo not given) | inactive: -5.96% | –

SMILES | activity, negative = inhibition | Potency
CCC(CC)C1C(C#N)=C(N)Oc2c1c(=O)oc1ccccc21 (stereo not given) | – | inconclusive: 31.6 µM [inhibitor, single point]
Cc1ccccc1Cn1cccc(C(=O)Nc2cc(Cl)ccc2C#N)c1=O | – | inconclusive: 15.8 µM [inhibitor, partial curve]
O=Cc1cn(Cc2c(F)cccc2Cl)c2ccccc12 | inactive: -8.84% | –
O=C(C(=O)N1CC=C(c2ccccc2)CC1)c1c[nH]c2ccccc12 | – | inconclusive: 5.01 µM [inhibitor, single point]
CCN1C(=O)/C(=C\c2ccc([N+](=O)[O-])s2)C(=O)NC1=S | – | inconclusive: 3.16 µM [inhibitor, single point]
C=C(C=O)C[C@@H]1C[C@H](O)C2OC3C[C@]4(C)OC5/C=C\CC6OC7C(CC=CCC6OC5CCCC4OC3CC2O1)OC1CC2OC3CC(=O)OC3C[C@@H](C)C[C@@]2(C)OC1C[C@@H]7C (stereo not given in full) | – | active: 3.98 µM
COc1ccc(-n2c(=S)[nH]c3c(sc(=S)n3-c3ccccc3)c2=O)c(OC)c1 | – | inconclusive: 22.4 µM [inhibitor, partial curve]
Cc1cc(NC(=O)c2cccn(Cc3cccc([N+](=O)[O-])c3)c2=O)no1 | – | inconclusive: 20 µM [inhibitor, single point]
CN(C)S(=O)(=O)c1cc(NC(=O)C[N+]23CCN(CC2)CC3)ccc1Cl | inactive: 9.75% | –
CN1C(=O)C(=Cc2ccccc2OCc2ccc(Cl)cc2)C(=O)N(C)C1=O | inactive: -0.598% | –
C=CC(C)(C)c1c2c(c(O)c3c(=O)c4ccc(O)c(O)c4oc13)C=CC(C)(C)O2 | – | inconclusive: 31.6 µM [inhibitor, single point]
O=C1NC(=O)N(Cc2ccccc2)C(=O)/C1=C/N1CCCc2ccccc21 | – | inconclusive: 10 µM [inhibitor, partial curve]
CCC(=O)N1CC(=O)Nc2ccc(C)cc2C1c1ccc(F)cc1 (stereo not given) | – | inconclusive: 17.8 µM [inhibitor, single point]
COc1ccc(CN2C(=O)CC(=O)NC2=O)cc1 | – | inconclusive: 11.2 µM [inhibitor, partial curve]
C=CCc1cc(C=C2C(=O)N(C)C(=O)N(C)C2=O)cc(OCC)c1OCc1ccccc1 | – | inconclusive: 35.5 µM [inhibitor, partial curve]
COc1ccc(C(=O)Oc2cccc3cccnc23)cc1S(=O)(=O)N1CCOCC1 | inactive: 14.9% | –
COc1ccc(CNCC(=O)N2CCC3(CC2)OCCO3)cc1 | – | inconclusive: 1.58 µM [inhibitor, full curve, poor fit]
C[C@@H]1Cc2c(Cl)cc(C(=O)N[C@@H](Cc3ccccc3)C(=O)O)c(O)c2C(=O)O1 | inactive: -8.61% | –
CCOC(=O)c1ccc(NC(=O)Nc2cc3c(cc2N2CCCCC2)n(CC)c(=O)n3CC)cc1 | – | inconclusive: 2 µM [activator, full curve]
CN1CCc2cc(O)cc3c2C1Cc1ccc(O)c(O)c1-3 (stereo not given) | – | active: 22.4 µM and active: 39.8 µM
CC1(C)C(O)CC(O)[C@]2(C)C1CC(O)[C@]1(C)C2CC[C@@]2(C)C(c3ccoc3)CC3OC312 (stereo not given in full) | inactive: 1.46% | –
O=C(CC[N+](=O)[O-])OCC1OC(O)C(OC(=O)CC[N+](=O)[O-])[C@@H](OC(=O)CC[N+](=O)[O-])C1OC(=O)CC[N+](=O)[O-] (stereo not given in full) | – | inconclusive: 25.1 µM [inhibitor, partial curve]

SMILES | activity, negative = inhibition | Potency
O=CN1CCCCC1C1CC[C@H]2CCCCN2C1 (stereo not given in full) | inactive: 2.4% | –
CCCCn1c(O)c(C(=O)/C=C/c2c[nH]c3ccccc23)c(=O)[nH]c1=O | – | inconclusive: 39.8 µM [inhibitor, single point]
CCOP(=O)(CC(C(C)=O)C(O)c1ccccc1)OCC (stereo not given) | – | inconclusive: 0.891 µM [inhibitor, full curve, poor fit]
c1cncc(C2Nc3cccc4cccc(c34)N2)c1 | – | inconclusive: 22.4 µM [inhibitor, partial curve]
COc1cccc(-n2c(CN3CCN(C)CC3)nc3ccc([N+](=O)[O-])cc3c2=O)c1 | – | inconclusive: 12.6 µM [activator, partial curve, poor fit]
COc1cc(CNC(=O)CCCC/C=C/C(C)C)ccc1O | – | inconclusive: 31.6 µM [activator, single point]
CC(=O)OC1CC2C(C)(C)C(O)C=C[C@@]2(C)C2CC[C@]3(C)C(=CC(=O)OC3c3ccoc3)[C@]12C (stereo not given in full) | – | inconclusive: 39.8 µM [inhibitor, single point]
CSc1ncc(/C=C2/C(=O)NC(=O)N(C)C2=O)cn1 | – | inconclusive: 44.7 µM [inhibitor, single point]
CCOc1cc(/C=C2\C(=O)NC(=O)N(CCc3ccc(F)cc3)C2=O)ccc1O | – | inconclusive: 17.8 µM [inhibitor, partial curve]
O=c1[nH]c(=O)n(Cc2ccco2)c(O)c1C=NC1CC1 | inactive: -11.1% | –
CCN(CC)CCCN=Cc1c(O)n(CCc2ccc(F)cc2)c(=O)[nH]c1=O | inactive: 1.13% | –
Cc1cc(/C=C2\C(=O)NC(=O)N(Cc3ccccc3Cl)C2=O)c(C)n1-c1ccc(C(=O)O)cc1 | – | inconclusive: 17.8 µM [inhibitor, partial curve]
CC1CN(c2ccc([N+](=O)[O-])cc2Cl)CCN1 (stereo not given) | inactive: -6.53% | –
O=C(COC(=O)c1cccc(O)c1)Nc1ccc(Cl)cc1C(=O)c1ccccc1 | – | inconclusive: 28.2 µM [inhibitor, partial curve]
N#Cc1ccccc1Cn1cc(C(=O)c2ccco2)c2ccccc21 | – | inconclusive: 39.8 µM [inhibitor, single point]
N=C(N)c1c(O)n(C2CCCCC2)c(=O)n(C2CCCCC2)c1=O | – | active: 28.2 µM
CC(C)CN(CC(C)C)c1ccc(C=C2C(=O)NC(=S)NC2=O)cc1[N+](=O)[O-] | – | inconclusive: 39.8 µM [inhibitor, single point]
CC/C(=N\NC(=S)Nc1ccccc1)c1c(O)[nH]c(=O)[nH]c1=O | – | inconclusive: 28.2 µM [inhibitor, single point]
Cc1ccc(C(=O)COC(=O)c2cccc(NC(=O)c3ccc(Br)cc3)c2)cc1 | – | inconclusive: 7.94 µM [inhibitor, partial curve]
CCCCc1nc2ccccc2c(=O)n1-c1cccc(OC)c1 | inactive: -0.192% | –
Cc1cc(/C=C2\C(=O)NC(=O)N(Cc3ccccc3)C2=O)c(C)n1-c1ccc(Cl)c(C(=O)O)c1 | – | inconclusive: 0.0282 µM [inhibitor, full curve, poor fit]
